From PubChem BioAssay AID686979 (National Center for Advancing Translational Sciences (NCATS), 2013)
Out of some 420,000 compounds screened, about 50,000 (12%) were called active. This list was built around the results that the source calls inconclusive (neither active nor inactive); the mix of calls is not that of the screen. The call rests on the fitted dose curve; in most records, active means well fitted inhibition curve with a large enough effect; inconclusive means small, poorly fitted or top-dose-only effect; inactive means flat fitted curve, though single readings scatter. Potencies of inconclusive entries are left out as doubtful fits.

test: qHTS for Inhibitors of human tyrosyl-DNA phosphodiesterase 1 (TDP1): qHTS in cells in presence of CPT; settings: chicken DT40 Tdp1-/-;hTDP1 cells + 20 nM CPT, ATP luminescence, 48 h; activity change, negative = growth inhibition: at 46.2 µM (top of the series) unless noted; further: nearly all actives have a fitted effect of over 55% in size
Procedure, shortened: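 Chicken DT40 Tdp1-/- cells complemented with human TDP1, 400 cells/well, exposed to compounds plus 20 nM camptothecin for at least 48 h at 37 C; viability read as ATP content by CellTiter-Glo luminescence.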
On the % scale 0 is the no-effect control and ±100 the full control effect; potency means the concentration at half of the fitted maximal effect; tags describe the fitted curve by direction and shape.

Compound	activity change, negative = growth inhibition	Potency
CCOc1ccc(CNn2nnnc2N)cc1	inactive: -2.18%	–
CC(=O)N1c2ccc(S(=O)(=O)NCCC(=O)Nc3ccc(F)cc3)cc2CC1C (centres undefined)	–	inconclusive [inhibitor, partial curve]
CCN(CC)S(=O)(=O)c1cccc(NC(=O)COc2ncnc3sccc23)c1	–	inconclusive [inhibitor, single point]
CCC(C)Sc1ccc([C@@H]2[C@@H]3C(=O)N(CC)C(=O)[C@@H]3[C@]3(C(=O)OC)CCCCN23)cc1OC (some centres undefined)	–	inconclusive [inhibitor, single point]
C#CCOCCOCCOCCNc1nc(N2CCN(C(=O)[C@H](C)n3cc(CCC(=O)O)nn3)CC2)nc(N2CCN(C(=O)[C@H](Cc3ccc(O)cc3)n3cc(CCO)nn3)CC2)n1	inactive: -1.61%	–
COc1ccc(N2CCN(C(=O)CSc3nnc(-c4cccnc4)n3-c3ccccc3)CC2)cc1	inactive: -27.6%	–
Cc1[nH]n(-c2ccc(Cl)c(Cl)c2)c(=O)c1CCO	–	inconclusive [inhibitor, single point]
CCCCCCCCN1C(=O)[C@H](CC(=O)N2CCSCC2)C[C@@]2(C(=O)OC)CCCCC=C12	–	inconclusive [inhibitor, single point]
CC1(C(=O)NCC2CCCCC2)CCN1C(=O)Cc1ccc(-c2ccccc2)cc1 (centres undefined)	–	inconclusive [inhibitor, single point]
COC(=O)c1c(NC(=O)c2cc(=O)c3c(C)cc(C)cc3o2)sc2c1CCCC2	inactive: 6.35%	–
CSc1nc(C)cc(Oc2ccc(=O)[nH]n2)n1	inactive: -4.52%	–
O=[N+]([O-])c1ccc(O)c(/C=N/n2c(-c3ccccc3)n[nH]c2=S)c1	inactive: 1.78%	–
C#CC[N+](C)(C)CCCCCCCCCC	–	active: 2.06 µM
O=C(NCc1ccccc1)C(c1ccc(F)cc1)N1CCN(c2ccccc2F)CC1 (centres undefined)	–	active: 9.2 µM
CC1CCC(C(C)C)C(NC(=O)c2ccncc2)C1 (centres undefined)	inactive: -14%	–
Cc1cc([N+](=O)[O-])cc2c1NC(=O)C2(O)N1CCOCC1 (centres undefined)	–	inconclusive [inhibitor, single point]
NS(=O)(=O)c1ccc(CNC(=O)c2cc(-c3cccs3)nc3ccccc23)cc1	–	inconclusive [inhibitor, single point]
Cn1ccc2c(-c3ccc(F)cc3)cc3c(c21)C1CCC3C1 (centres undefined)	inactive: -25.5%	–
CC(=O)Nc1ccc(-c2ccnc3c2CC(C)(C(=O)NCc2ccco2)O3)cc1 (centres undefined)	–	active: 1.46 µM
O=C(Nc1ccc(OCC(=O)N2CCC(Cc3ccccc3)CC2)cc1)c1ccco1	–	active: 20.6 µM
Cc1ccc(-n2ncc3c(N4CCN(c5ccccc5)CC4)ncnc32)cc1C	–	inconclusive [inhibitor, partial curve]
CCOC(=O)C1CCN(S(=O)(=O)c2cc(-c3onc(C)c3C)ccc2C)CC1	–	inconclusive [inhibitor, single point]

Compound	activity change, negative = growth inhibition	Potency
Cc1ccc(S(=O)(=O)NCC(=O)NCC(=O)NCCc2ccccc2F)cc1C	inactive: -1.2%	–
Cc1cccc(NC(=O)CN(c2ccc(C(C)C)cc2)S(=O)(=O)c2c(C)nn(C)c2C)c1C	–	inconclusive [inhibitor, single point]
CCC(C(=O)NC1CCCC1)n1c(C2CC2)nc2ccccc21 (centres undefined)	inactive: -23.8%	–
Cc1nnc(NC(=O)C(c2ccccc2)c2ccccc2)s1	–	inconclusive [inhibitor, single point]
CCN(CC)S(=O)(=O)c1ccc(N2CCN(c3ccccc3O)CC2)nc1	–	inconclusive [inhibitor, single point]
O=C(NC1CCCCC1)C1CCCN1S(=O)(=O)c1ccc(Cl)cc1 (centres undefined)	–	inconclusive [inhibitor, single point]
COc1cc(C(=O)NCC(=O)N/N=C/c2ccc(-c3ccc([N+](=O)[O-])cc3)o2)cc(OC)c1OC	–	inconclusive [inhibitor, single point]
CCOc1ccc2c(c1)c1nnc(SCC3CCCO3)nc1n2C (centres undefined)	–	inconclusive [inhibitor, single point]
CC(O)(c1ccc(F)c(F)c1)c1nc(/C=C/c2ccccc2)cs1 (centres undefined)	–	inconclusive [inhibitor, single point]
CC1(C)Nc2cccc3c(N=Nc4ccc(N=Nc5ccccc5)c5ccccc45)ccc(c23)N1	–	inconclusive [inhibitor, single point]
O=C1N(c2cccc3ccccc23)C(c2ccccc2)N2CCCN12 (centres undefined)	inconclusive: -4.29% [inhibitor]	–
O=C(NC1CCN(C(=O)N2c3ccccc3Sc3ccccc32)CC1)c1ccccc1Cl	–	inconclusive [inhibitor, single point]
COc1ccc2cc(CN(Cc3ccco3)C(=S)NCC3CCCO3)c(=O)[nH]c2c1 (centres undefined)	–	inconclusive [inhibitor, single point]
Cc1[nH]n(-c2ccccc2)c(=O)c1C=NCCc1ccccc1	inactive: -12.8%	–
CC(=O)c1c(C)[nH]c(C(=O)OCC(=O)N2CCN(S(=O)(=O)c3ccc(C)cc3)CC2)c1C	inactive: -27.6%	–
CCOC(=O)c1c(NC(=O)COC(=O)c2ccc(C)s2)sc2c1CC(C)(C)NC2(C)C	–	inconclusive [inhibitor, single point]
CCOc1ccc(NS(=O)(=O)c2ccc(C(=O)N(C)CCc3ccc(OC)c(OC)c3)cc2)cc1	–	inconclusive [inhibitor, partial curve, poor fit]
COc1cccc(C(=O)NNc2c3ccccc3nc3ccccc23)c1	–	inconclusive [inhibitor, single point]
O=C(COc1ccccc1Cl)N1CCc2ccccc21	inactive: 10.8%	–
CCOC(=O)N1CCN(C(=O)c2ccc3c(c2)N(Cc2ccccc2F)C(=O)c2ccccc2S3=O)CC1 (centres undefined)	–	inconclusive [inhibitor, partial curve]
C=CCn1c(C(CC)CC)nc2ccccc21	inactive: 10.2%	–
COc1ccc(CCNC(=O)C(=O)NCC2OCCN2S(=O)(=O)c2ccccc2)cc1OC (centres undefined)	–	inconclusive [inhibitor, full curve, poor fit]
